# Laboratory results from the supplement of paper PMC12217912.
# This is one part of the list. The full chains were built here from the parent and the listed change. Inactive controls read about 0.05.
# B1: TEV protease; numbered along this chain (parent)
# chain: MGESLFKGPRDYNPISSSICHLTNESDGHTTSLYGIGFGPFIITNKHLFRRNNGTLVVQSLHGVFKVKDTTTLQQHLVDGRDMIIIRMPKDFPPFPQKLKFREPQREERICLVTTNFQTKSMSSMVSDTSCTFPSGDGIFWKHWIQTKDGQCGSPLVSTRDGFIVGIHSASNFTNTNNYFTSVPKNFMELLTNQEAQQWVSGWRLNADSVLWGGHKVFMVKPEEPFQPVKEATQL
# Variants of: B1
# Assay: raw area under fraction-flipped curve 0-4 h after induction (AUC4h, not background-subtracted), DNA-recorder readout of cleavage of the substrate (dimensionless); higher = more cleavage of the substrate by the protease variant
# Settings: temperature: 34 °C; time window: 0-4 h after rhamnose induction
# 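Note: Bxb1 expression induced with 0.2% (w/v) L-rhamnose at OD600 near 0.5, cultures sampled hourly, flipped fraction per protease–substrate barcode pair counted by paired-end Illumina sequencing.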
Variant,area with substrate HNLYFQS,area with substrate LNLYFQS,area with substrate SNLYFQS,area with substrate TNLYFQS,area with substrate VNLYFQS,area with substrate WNLYFQS,area with substrate YNLYFQS,area with substrate INLYFQS,area with substrate PNLYFQS,area with substrate QNLYFQS
A232D,0.0798,0.0487,0.0658,0.0843,0.0605,0.0542,0.0713,–,–,–
L235W,0.0576,0.0581,–,0.0716,–,0.0544,0.0596,0.0581,0.065,0.0653
L5S,–,–,–,–,–,0.0534,–,–,0.0693,–
V229W,0.0616,–,0.0767,0.0677,0.0635,0.055,0.0673,0.0612,0.0598,–
D79Y,–,–,–,–,–,–,–,–,0.0741,–
L191W,0.0474,0.0583,–,0.0556,–,–,0.0508,0.0608,–,–
F187V,0.0755,0.0737,0.0623,0.0693,0.0531,–,0.0736,0.0578,0.0907,–
L205C,–,–,–,0.0634,–,0.0513,0.0375,0.032,0.0668,–
F95P,–,0.0312,0.0547,0.039,0.0503,0.0408,–,0.0558,0.0488,–
P94C,–,–,–,0.0412,–,0.0578,0.0652,–,–,–
T233A,–,–,–,0.039,–,0.071,0.0643,0.0767,0.0747,–
V210I,0.0494,–,0.0667,0.0546,–,–,–,–,–,–
V210W,0.0546,0.0633,0.0441,0.0526,–,0.0609,0.0598,0.0454,–,–
L73A,–,0.0639,–,0.0522,–,0.0549,0.0524,–,0.067,–
P89G,–,–,–,0.0451,–,0.046,–,–,–,–
Q234E,0.0762,0.0676,–,0.148,0.0614,0.0668,0.0249,0.054,0.0461,–
M188H,–,0.065,–,0.0531,–,0.0613,–,0.0577,–,–
L211E,0.0673,0.0531,0.103,0.0773,0.0924,0.0597,0.0632,0.0709,0.079,–
L211G,0.0592,–,0.0568,–,–,0.0676,–,–,–,–
S158T,–,0.0446,–,0.0691,0.0618,–,–,–,–,–
P228I,–,–,–,–,–,–,0.0693,–,0.0569,–
H143S,–,0.047,–,–,–,0.0621,–,0.0574,–,0.0791
G214I,0.0542,–,–,–,–,–,0.0422,0.0513,–,–
G214H,–,0.0496,–,0.0744,–,–,–,–,0.0481,–
S201F,–,0.0623,–,0.0474,–,–,0.0529,–,–,–
K230R,0.0603,0.0646,0.0826,–,–,–,–,–,–,–

# Same assay, conditions: temperature: 34 °C; time window: 0-4 h after rhamnose induction
Variant,area with substrate RNLYFQS,area with substrate KNLYFQS,area with substrate NNLYFQS,area with substrate MNLYFQS
L5S,0.0802,–,–,–
V229W,–,0.0573,0.0775,–
D79Y,0.0707,0.0802,–,–
L191W,–,–,0.0567,0.0747
F187V,–,0.0481,–,0.0687
F95P,–,0.0623,0.0402,–
P94C,–,–,–,0.0291
V210I,–,–,0.0377,0.0625
V210W,0.0537,–,0.0485,–
P89G,–,–,0.0577,–
Q234E,–,0.0736,–,–
L211E,0.0785,0.0676,–,0.065
L211G,–,–,0.0583,–
S158T,–,–,0.0444,–
P228I,0.0597,–,–,–
H143S,–,0.0455,–,0.0766
G214H,–,–,–,0.0574
